# Test results: article PMC8583203, “DisA Restrains the Processing and Cleavage of Reversed Replication Forks by the RuvAB-RecU Resolvasome”
# Results are given in words; binding and its absence hold for the method and conditions named. Some binding calls cover weakened binding; strength is not graded here.
# T1: RuvA (Bacillus subtilis, UniProt O05392 1-201)
# T1 sequence: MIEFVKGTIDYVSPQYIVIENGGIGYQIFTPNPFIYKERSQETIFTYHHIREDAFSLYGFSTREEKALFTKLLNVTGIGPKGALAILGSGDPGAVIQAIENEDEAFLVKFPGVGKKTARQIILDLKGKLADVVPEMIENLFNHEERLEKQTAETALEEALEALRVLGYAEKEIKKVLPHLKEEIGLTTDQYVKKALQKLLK
# T2: RuvB (Bacillus subtilis) (UniProt O32055)
# T2 sequence: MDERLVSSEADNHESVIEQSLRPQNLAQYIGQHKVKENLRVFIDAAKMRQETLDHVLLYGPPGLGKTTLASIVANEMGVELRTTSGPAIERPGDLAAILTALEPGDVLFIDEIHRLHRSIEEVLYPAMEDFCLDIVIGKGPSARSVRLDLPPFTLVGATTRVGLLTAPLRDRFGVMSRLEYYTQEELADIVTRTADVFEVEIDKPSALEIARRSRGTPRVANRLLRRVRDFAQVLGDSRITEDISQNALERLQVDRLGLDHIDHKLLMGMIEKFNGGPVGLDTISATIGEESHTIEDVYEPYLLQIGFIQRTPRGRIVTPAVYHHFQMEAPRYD
# T3: RecU (Bacillus subtilis, UniProt P39792 1-206)
# T3 sequence: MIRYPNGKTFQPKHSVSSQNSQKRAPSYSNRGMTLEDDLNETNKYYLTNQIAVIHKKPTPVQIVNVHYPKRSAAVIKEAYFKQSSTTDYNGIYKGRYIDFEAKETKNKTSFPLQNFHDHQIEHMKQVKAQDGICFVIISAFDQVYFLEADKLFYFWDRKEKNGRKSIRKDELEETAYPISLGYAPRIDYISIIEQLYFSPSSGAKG
# T4: DisA (Bacillus subtilis, UniProt P37573 1-360)
# T4 sequence: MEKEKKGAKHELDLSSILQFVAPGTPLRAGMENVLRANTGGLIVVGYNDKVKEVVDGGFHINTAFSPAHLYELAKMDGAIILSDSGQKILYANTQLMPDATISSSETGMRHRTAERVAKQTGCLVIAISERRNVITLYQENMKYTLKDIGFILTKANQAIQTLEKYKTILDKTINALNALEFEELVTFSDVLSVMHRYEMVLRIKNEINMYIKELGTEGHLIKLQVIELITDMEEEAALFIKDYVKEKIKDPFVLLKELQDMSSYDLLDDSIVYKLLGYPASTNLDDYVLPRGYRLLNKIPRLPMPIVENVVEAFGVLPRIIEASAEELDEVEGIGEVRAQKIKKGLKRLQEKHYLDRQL
# How the values were obtained:
# Experiment in all cases: two-hybrid; bacterial adenylate cyclase-based two-hybrid (BACTH) in E. coli BTH101; T18 and T25 fusions at the N- or C-terminus co-transformed pairwise; serial dilutions spotted on LB plates with IPTG and X-Gal, 25 °C, 3-4 days; blue colour means interaction
# RuvA = molecular target: T1, RuvA
# RuvB (Bacillus subtilis) = molecular target: T2, RuvB (Bacillus subtilis)
# RecU = molecular target: T3, RecU
# DisA = molecular target: T4, DisA
binder,measurement,setting,value
"RuvA (protein, UniProt O05392 1-201) MIEFVKGTIDYVSPQYIVIENGGIGYQIFTPNPFIYKERSQETIFTYHHIREDAFSLYGFSTREEKALFTKLLNVTGIGPKGALAILGSGDPGAVIQAIENEDEAFLVKFPGVGKKTARQIILDLKGKLADVVPEMIENLFNHEERLEKQTAETALEEALEALRVLGYAEKEIKKVLPHLKEEIGLTTDQYVKKALQKLLK",binding,RuvA,binds
"RuvB (protein, UniProt O32055 1-334) MDERLVSSEADNHESVIEQSLRPQNLAQYIGQHKVKENLRVFIDAAKMRQETLDHVLLYGPPGLGKTTLASIVANEMGVELRTTSGPAIERPGDLAAILTALEPGDVLFIDEIHRLHRSIEEVLYPAMEDFCLDIVIGKGPSARSVRLDLPPFTLVGATTRVGLLTAPLRDRFGVMSRLEYYTQEELADIVTRTADVFEVEIDKPSALEIARRSRGTPRVANRLLRRVRDFAQVLGDSRITEDISQNALERLQVDRLGLDHIDHKLLMGMIEKFNGGPVGLDTISATIGEESHTIEDVYEPYLLQIGFIQRTPRGRIVTPAVYHHFQMEAPRYD",binding,RuvB (Bacillus subtilis),binds
"DisA ΔC290 (domain or fragment, UniProt P37573 1-290) MEKEKKGAKHELDLSSILQFVAPGTPLRAGMENVLRANTGGLIVVGYNDKVKEVVDGGFHINTAFSPAHLYELAKMDGAIILSDSGQKILYANTQLMPDATISSSETGMRHRTAERVAKQTGCLVIAISERRNVITLYQENMKYTLKDIGFILTKANQAIQTLEKYKTILDKTINALNALEFEELVTFSDVLSVMHRYEMVLRIKNEINMYIKELGTEGHLIKLQVIELITDMEEEAALFIKDYVKEKIKDPFVLLKELQDMSSYDLLDDSIVYKLLGYPASTNLDDYVL",binding,RuvB (Bacillus subtilis),binds
"RecU (protein, UniProt P39792 1-206) MIRYPNGKTFQPKHSVSSQNSQKRAPSYSNRGMTLEDDLNETNKYYLTNQIAVIHKKPTPVQIVNVHYPKRSAAVIKEAYFKQSSTTDYNGIYKGRYIDFEAKETKNKTSFPLQNFHDHQIEHMKQVKAQDGICFVIISAFDQVYFLEADKLFYFWDRKEKNGRKSIRKDELEETAYPISLGYAPRIDYISIIEQLYFSPSSGAKG",binding,RecU,binds
same,binding,DisA,no binding
